# Results: the supplement of paper PMC8728848
# The other results are listed elsewhere or left out.
# Columns and labels:
# Assay in all cases: glycan array binding signal (z-score within array); higher = stronger binding
# Details in all cases: glycan notation: IUPAC condensed, linker removed
# [1] = target: Fuc(a1-2)Gal6S(b1-3)GlcNAc
# Method in brief: (§1)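 The Consortium for Functional Glycomics database supplied 3228 glycan arrays, of which those lacking an available protein sequence were dropped. The binding signal, a within-array Z-score, was averaged across arrays of the same protein sequence and across linkers. Negative scores can be read as non-binding.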
# [2] = target: Fuc(a1-2)Gal6S(b1-3)GlcNAc6S
# Method in brief: as §1
# Fuc(a1-2)Gal6S(b1-4)Glc = target: Fuc(a1-2)Gal6S(b1-4)Glc
# Method in brief: as §1
# [3] = target: Fuc(a1-2)Gal6S(b1-4)Glc6S
# Method in brief: as §1
# Fuc(a1-2)[Gal(a1-3)]Gal = target: Fuc(a1-2)[Gal(a1-3)]Gal
# Method in brief: as §1
# [4] = target: Fuc(a1-2)[Gal(a1-3)]Gal(b1-3)GalNAc
# Method in brief: as §1
# [5] = target: Fuc(a1-2)[Gal(a1-3)]Gal(b1-3)GalNAc(b1-3)Gal(a1-4)Gal(b1-4)Glc
# Method in brief: as §1
# [6] = target: Fuc(a1-2)[Gal(a1-3)]Gal(b1-3)GlcNAc
# Method in brief: as §1
# [7] = target: Fuc(a1-2)[Gal(a1-3)]Gal(b1-3)GlcNAc(b1-2)Man(a1-3)[Fuc(a1-2)[Gal(a1-3)]Gal(b1-3)GlcNAc(b1-2)Man(a1-6)]Man(b1-4)GlcNAc(b1-4)GlcNAc
# Method in brief: as §1
# [8] = target: Fuc(a1-2)[Gal(a1-3)]Gal(b1-3)GlcNAc(b1-2)Man(a1-3)[Fuc(a1-2)[Gal(a1-3)]Gal(b1-3)GlcNAc(b1-2)Man(a1-6)]Man(b1-4)GlcNAc(b1-4)[Fuc(a1-6)]GlcNAc
# Method in brief: as §1
# [9] = target: Fuc(a1-2)[Gal(a1-3)]Gal(b1-3)GlcNAc(b1-3)GalNAc
# Method in brief: as §1
# [10] = target: Fuc(a1-2)[Gal(a1-3)]Gal(b1-3)GlcNAc(b1-6)GalNAc
# Method in brief: as §1
# [11] = target: Fuc(a1-2)[Gal(a1-3)]Gal(b1-4)Glc
# Method in brief: as §1
# [12] = target: Fuc(a1-2)[Gal(a1-3)]Gal(b1-4)GlcNAc
# Method in brief: as §1
# [13] = target: Fuc(a1-2)[Gal(a1-3)]Gal(b1-4)GlcNAc(b1-2)Man
# Method in brief: as §1
# [14] = target: Fuc(a1-2)[Gal(a1-3)]Gal(b1-4)GlcNAc(b1-2)Man(a1-3)[Fuc(a1-2)[Gal(a1-3)]Gal(b1-4)GlcNAc(b1-2)Man(a1-6)]Man(b1-4)GlcNAc(b1-4)GlcNAc
# Method in brief: as §1
# [15] = target: Fuc(a1-2)[Gal(a1-3)]Gal(b1-4)GlcNAc(b1-2)Man(a1-3)[Fuc(a1-2)[Gal(a1-3)]Gal(b1-4)GlcNAc(b1-2)Man(a1-6)]Man(b1-4)GlcNAc(b1-4)[Fuc(a1-6)]GlcNAc
# Method in brief: as §1
# [16] = target: Fuc(a1-2)[Gal(a1-3)]Gal(b1-4)GlcNAc(b1-3)GalNAc
# Method in brief: as §1
# [17] = target: Fuc(a1-2)[Gal(a1-3)]Gal(b1-4)GlcNAc(b1-3)[Fuc(a1-2)[Gal(a1-3)]Gal(b1-4)GlcNAc(b1-6)]GalNAc
# Method in brief: as §1
# [18] = target: Fuc(a1-2)[Gal(a1-3)]Gal(b1-4)GlcNAc(b1-6)GalNAc
# Method in brief: as §1
# [19] = target: Fuc(a1-2)[Gal(a1-3)]Gal(b1-4)[Fuc(a1-3)]Glc
# Method in brief: as §1
# [20] = target: Fuc(a1-2)[Gal(a1-3)]Gal(b1-4)[Fuc(a1-3)]GlcNAc
# Method in brief: as §1
# [21] = target: Fuc(a1-2)[Gal(a1-3)]Gal(b1-4)[Fuc(a1-3)]GlcNAc(b1-3)GalNAc
# Method in brief: as §1
# [22] = target: Fuc(a1-2)[Gal(a1-4)]Gal(b1-4)GlcNAc
# Method in brief: as §1
# [23] = target: Fuc(a1-2)[GalNAc(a1-3)]Gal
# Method in brief: as §1
# [24] = target: Fuc(a1-2)[GalNAc(a1-3)]Gal(b1-3)GalNAc(a1-3)[Fuc(a1-2)]Gal(b1-4)GlcNAc
# Method in brief: as §1
# [25] = target: Fuc(a1-2)[GalNAc(a1-3)]Gal(b1-3)GalNAc(b1-3)Gal(a1-4)Gal(b1-4)Glc
# Method in brief: as §1
# [26] = target: Fuc(a1-2)[GalNAc(a1-3)]Gal(b1-3)GlcNAc
# Method in brief: as §1
# [27] = target: Fuc(a1-2)[GalNAc(a1-3)]Gal(b1-3)GlcNAc(b1-2)Man(a1-3)[Fuc(a1-2)[GalNAc(a1-3)]Gal(b1-3)GlcNAc(b1-2)Man(a1-6)]Man(b1-4)GlcNAc(b1-4)GlcNAc
# Method in brief: as §1
# [28] = target: Fuc(a1-2)[GalNAc(a1-3)]Gal(b1-3)GlcNAc(b1-2)Man(a1-3)[Fuc(a1-2)[GalNAc(a1-3)]Gal(b1-3)GlcNAc(b1-2)Man(a1-6)]Man(b1-4)GlcNAc(b1-4)[Fuc(a1-6)]GlcNAc
# Method in brief: as §1
# [29] = target: Fuc(a1-2)[GalNAc(a1-3)]Gal(b1-3)GlcNAc(b1-3)GalNAc
# Method in brief: as §1
# [30] = target: Fuc(a1-2)[GalNAc(a1-3)]Gal(b1-3)GlcNAc(b1-6)GalNAc
# Method in brief: as §1
# [31] = target: Fuc(a1-2)[GalNAc(a1-3)]Gal(b1-4)Glc
# Method in brief: as §1
# [32] = target: Fuc(a1-2)[GalNAc(a1-3)]Gal(b1-4)GlcNAc
# Method in brief: as §1
# [33] = target: Fuc(a1-2)[GalNAc(a1-3)]Gal(b1-4)GlcNAc(b1-2)Man
# Method in brief: as §1
# [34] = target: Fuc(a1-2)[GalNAc(a1-3)]Gal(b1-4)GlcNAc(b1-2)Man(a1-3)[Fuc(a1-2)[GalNAc(a1-3)]Gal(b1-4)GlcNAc(b1-2)Man(a1-6)]Man(b1-4)GlcNAc(b1-4)GlcNAc
# Method in brief: as §1
# [35] = target: Fuc(a1-2)[GalNAc(a1-3)]Gal(b1-4)GlcNAc(b1-2)Man(a1-3)[Fuc(a1-2)[GalNAc(a1-3)]Gal(b1-4)GlcNAc(b1-2)Man(a1-6)]Man(b1-4)GlcNAc(b1-4)[Fuc(a1-6)]GlcNAc
# Method in brief: as §1
# [36] = target: Fuc(a1-2)[GalNAc(a1-3)]Gal(b1-4)GlcNAc(b1-3)Gal(b1-4)GlcNAc
# Method in brief: as §1
# [37] = target: Fuc(a1-2)[GalNAc(a1-3)]Gal(b1-4)GlcNAc(b1-3)Gal(b1-4)GlcNAc(b1-3)Gal(b1-4)GlcNAc
# Method in brief: as §1
# [38] = target: Fuc(a1-2)[GalNAc(a1-3)]Gal(b1-4)GlcNAc(b1-3)GalNAc
# Method in brief: as §1
# [39] = target: Fuc(a1-2)[GalNAc(a1-3)]Gal(b1-4)GlcNAc(b1-3)[Fuc(a1-2)[GalNAc(a1-3)]Gal(b1-4)GlcNAc(b1-6)]GalNAc
# Method in brief: as §1
# [40] = target: Fuc(a1-2)[GalNAc(a1-3)]Gal(b1-4)GlcNAc(b1-6)GalNAc
# Method in brief: as §1
# [41] = target: Fuc(a1-2)[GalNAc(a1-3)]Gal(b1-4)[Fuc(a1-3)]GlcNAc
# Method in brief: as §1
# [42] = target: Fuc(a1-2)[GalNAc(a1-3)]Gal(b1-4)[Fuc(a1-3)]GlcNAc(b1-3)GalNAc
# Method in brief: as §1
# [43] = target: Fuc(a1-2)[GalNAc(a1-4)]Gal(b1-4)GlcNAc
# Method in brief: as §1
binder,measurement,setting,value
"PVL (Psathyrella velutina), Q309D1_9AGAR (protein) MSVVVISQALPVPTRIPGVADLVGFGNGGVYIIRNSLLIQVVKVINNFGYDAGGWRVEKHVRLLADTTGDNQPDVVGFGENGVWISTNNGNNTFVDPPKMVLANFAYAAGGWRVEKHIRFMADLRKTGRADIVGFGDGGIYISRNNGGGQFAPAQLALNNFGYAQGWRLDRHLRFLADVTGDGLLDVVGFGENQVYIARNSGNGTFQPAQAVVNNFCIGAGGWTISAHPRVVADLTGDRKADILGFGVAGVYTSLNNGNGTFGAVNLVLKDFGVNSGWRVEKHVRCVSSLTNKKVGDIIGFGDAGVYVALNNGNGTFGPVKRVIDNFGYNQGWRVDKHPRFVVDLTGDGCADIVGFGENSVWACMNKGDGTFGPIMKLIDDMTVSKGWTLQKTVRYAANLYL",glycan array binding signal (z-score),[1],-0.364
same,glycan array binding signal (z-score),[2],-0.319
same,glycan array binding signal (z-score),Fuc(a1-2)Gal6S(b1-4)Glc,-0.355
same,glycan array binding signal (z-score),[3],-0.369
same,glycan array binding signal (z-score),Fuc(a1-2)[Gal(a1-3)]Gal,-0.368
same,glycan array binding signal (z-score),[4],-0.368
same,glycan array binding signal (z-score),[5],-0.314
same,glycan array binding signal (z-score),[6],-0.368
same,glycan array binding signal (z-score),[7],-0.379
same,glycan array binding signal (z-score),[8],-0.351
same,glycan array binding signal (z-score),[9],-0.368
same,glycan array binding signal (z-score),[10],-0.368
same,glycan array binding signal (z-score),[11],-0.359
same,glycan array binding signal (z-score),[12],-0.363
same,glycan array binding signal (z-score),[13],-0.372
same,glycan array binding signal (z-score),[14],-0.358
same,glycan array binding signal (z-score),[15],-0.366
same,glycan array binding signal (z-score),[16],-0.361
same,glycan array binding signal (z-score),[17],-0.323
same,glycan array binding signal (z-score),[18],-0.371
same,glycan array binding signal (z-score),[19],-0.366
same,glycan array binding signal (z-score),[20],-0.361
same,glycan array binding signal (z-score),[21],-0.368
same,glycan array binding signal (z-score),[22],-0.366
same,glycan array binding signal (z-score),[23],-0.347
same,glycan array binding signal (z-score),[24],-0.36
same,glycan array binding signal (z-score),[25],-0.375
same,glycan array binding signal (z-score),[26],-0.281
same,glycan array binding signal (z-score),[27],-0.357
same,glycan array binding signal (z-score),[28],-0.363
same,glycan array binding signal (z-score),[29],-0.353
same,glycan array binding signal (z-score),[30],-0.372
same,glycan array binding signal (z-score),[31],-0.766
same,glycan array binding signal (z-score),[32],-0.408
same,glycan array binding signal (z-score),[33],-0.357
same,glycan array binding signal (z-score),[34],-0.355
same,glycan array binding signal (z-score),[35],-0.346
same,glycan array binding signal (z-score),[36],-0.246
same,glycan array binding signal (z-score),[37],-0.017
same,glycan array binding signal (z-score),[38],-0.364
same,glycan array binding signal (z-score),[39],-0.153
same,glycan array binding signal (z-score),[40],-0.392
same,glycan array binding signal (z-score),[41],-0.612
same,glycan array binding signal (z-score),[42],-0.364
same,glycan array binding signal (z-score),[43],-0.335
